In PMC4336329 (PLoS ONE, 2015):
Out of some 310,000 compounds screened, about 14,000 (4.5%) showed an effect of 50% or more. The effect is printed as a negative number. The list shows a part of the results.

Biological target: human ether-à-go-go-related gene (hERG) potassium channel (human, UniProt Q12809)
Test: primary screen, population patch clamp on CHO cells stably expressing hERG
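Also: peak tail current of the secondary pulse compared with the same well before compound.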

Sequence of human ether-à-go-go-related gene (hERG) potassium channel (Q12809 whole entry, looked up): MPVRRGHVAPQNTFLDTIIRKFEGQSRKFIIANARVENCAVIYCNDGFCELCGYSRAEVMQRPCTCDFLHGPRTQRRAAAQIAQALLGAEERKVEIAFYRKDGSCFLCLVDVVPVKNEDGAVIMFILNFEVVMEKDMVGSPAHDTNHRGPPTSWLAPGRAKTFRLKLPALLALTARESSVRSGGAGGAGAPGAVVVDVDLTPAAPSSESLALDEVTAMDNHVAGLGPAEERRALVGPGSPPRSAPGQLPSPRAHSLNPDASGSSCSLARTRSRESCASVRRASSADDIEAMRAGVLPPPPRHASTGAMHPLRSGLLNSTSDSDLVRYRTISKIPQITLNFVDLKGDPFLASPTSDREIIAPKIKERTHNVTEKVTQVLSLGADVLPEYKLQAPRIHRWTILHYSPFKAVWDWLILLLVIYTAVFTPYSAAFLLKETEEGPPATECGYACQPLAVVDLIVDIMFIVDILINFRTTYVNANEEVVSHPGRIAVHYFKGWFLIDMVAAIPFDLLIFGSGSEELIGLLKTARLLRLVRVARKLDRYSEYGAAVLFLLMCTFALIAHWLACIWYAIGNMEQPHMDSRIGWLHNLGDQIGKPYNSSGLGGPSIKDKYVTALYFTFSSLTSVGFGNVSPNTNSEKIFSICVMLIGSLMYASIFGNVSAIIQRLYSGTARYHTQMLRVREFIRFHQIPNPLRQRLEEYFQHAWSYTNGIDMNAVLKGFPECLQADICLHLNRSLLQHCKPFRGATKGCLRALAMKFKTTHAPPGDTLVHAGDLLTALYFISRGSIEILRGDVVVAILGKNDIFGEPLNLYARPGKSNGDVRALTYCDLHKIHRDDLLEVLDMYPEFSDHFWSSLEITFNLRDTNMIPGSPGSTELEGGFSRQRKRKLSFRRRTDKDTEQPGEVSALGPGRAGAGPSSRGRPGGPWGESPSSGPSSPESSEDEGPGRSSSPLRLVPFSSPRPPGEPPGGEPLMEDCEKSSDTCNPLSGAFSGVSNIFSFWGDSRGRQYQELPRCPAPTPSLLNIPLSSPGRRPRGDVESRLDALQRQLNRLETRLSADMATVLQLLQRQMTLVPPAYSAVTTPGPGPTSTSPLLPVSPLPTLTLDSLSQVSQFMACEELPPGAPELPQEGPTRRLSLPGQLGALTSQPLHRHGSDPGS

Compound	hERG current change (%, negative = inhibition) at 10uM [%]
CCOC(=O)N1CCN(C(=O)c2cn(CC)c3ccc(S(=O)(=O)N4CCC(C)CC4)cc3c2=O)CC1	4.17
O=S(=O)(Nc1cccc(-n2cnnn2)c1)c1cc(Br)ccc1Br	2.53
CC(=O)NCCc1ccc(S(=O)(=O)Nc2ccc(NC(=O)c3ccc(F)cc3)cc2)cc1	15.4
CCOC(=O)c1cnc2c(C(=O)OC)cccc2c1NCc1cccnc1	-70.5
O=C(Nc1ccc(-c2csnn2)cc1)C(Cl)(Cl)Cl	17.5
CC(=O)Nc1ccc(NC(=O)c2sc(-c3ccccc3)nc2C)cc1	10.6
Cn1c(CN2CCCC2)nc2cc(NS(=O)(=O)c3ccc(Cl)cc3)ccc21	-61.7
COc1ccc(S(=O)(=O)N/N=C\c2ccc(OC)c(COc3ccc(C)cc3[N+](=O)[O-])c2)cc1	6.76
Cc1ccc(-c2cc([C@H]3[C@H]4C=CC[C@@H](C)[C@@H]4C(=O)N3Cc3ccccc3)ccc2F)cc1	22.4
N/C(Cc1ccc(Cl)cc1Cl)=N\OC(=O)c1ccc(Br)o1	19
CN1CCN(C(=O)C2=C[C@H](c3ccc4c(c3)OCO4)C[C@H](OCc3ccc(CO)cc3)O2)CC1	-31.1
CC(=O)N(C)c1ccc(NC(=O)Nc2ccc(C)c(C)c2)cc1	-0.764
COc1cc(C)c(Cl)cc1S(=O)(=O)N1CCSC1	5.11
Cc1cccc2sc(NC(=O)CN3C(=O)C4CC=CCC4C3=O)nc12 (stereo not shown)	-10.7
COc1cccc(-n2c(=O)c3sccc3n(CC(=O)NCC3CCCO3)c2=O)c1 (stereo not shown)	12.8
Cc1cc(C)c(CSc2nnnn2-c2ccc(C(=O)O)cc2)c(C)c1	7.1
C=CCSc1nnc(-c2cc3c(s2)-c2ccccc2CC3)o1	10.8
CC(C)(C)NC(=O)NC(=O)COC(=O)c1cccc(OC(F)F)c1	-28.4
CCOc1ccc(S(=O)(=O)n2cnc(C)c2)cc1	13.1
CC(=O)OCCN(Cc1ccccc1)Cc1ccc2c(c1)OCO2	-10.8
COc1cc(NC(=O)CN2C3CCC2CC(O)(c2cccnc2)C3)cc(OC)c1 (stereo not shown)	-60.9
CCOCCCN(C(=O)Cn1nnc(-c2ccc(OC)c(OC)c2)n1)C(CC)C(=O)NC1CCCC1 (stereo not shown)	-21

Compound	hERG current change (%, negative = inhibition) at 10uM [%]
COCCc1nnc(NC(=O)C23CC4CC(CC(C4)C2)C3)s1	13.8
Cc1c(C(=O)NCc2cccnc2)oc2c1C(=O)CC(C)(C)C2	-5.82
COc1ccc(NC(=O)CN(C)S(=O)(=O)c2cccc3nsnc23)cc1	-21.9
COc1ccc(N(CC(=O)Nc2cccc(SC)c2)S(C)(=O)=O)cc1Cl	-19
C/C(Cl)=C/Cn1c(N2CCCC2)nc2c1c(=O)n(C)c(=O)n2C	-2.69
O=C1NC(=S)N(c2cccc(Cl)c2)C12CCCCC2	13.3
CC(=O)OCC(OC(C)=O)C(OC(C)=O)C(OC(C)=O)C(=O)Nc1ccc(C)cc1C (stereo not shown)	-3.68
CCC(C)(C)n1nnnc1C(C(C)C)N1CCSCC1 (stereo not shown)	-61.6
CSc1ccc(C2C(C#N)=C(N)N(c3ccccc3)C3=C2C(=O)CCC3)cc1 (stereo not shown)	-38.8
CCc1cccc(NC(=O)CSc2nc3c(c(=O)[nH]2)CCCC3)c1	22.6
O=C(CSc1nc2ccc(Cl)cc2[nH]1)NCCc1ccccc1	-3.25
CCOc1cc(CNCCO)ccc1OCC(=O)NC(C)(C)C.Cl	15.7
Br.O=C(CN(Cc1ccccc1)C1=NCCS1)c1ccc(Cl)cc1	-49.8
Cc1ccc(S(=O)(=O)N2CCCCC2)cc1NC(=O)COC(=O)c1ccc(O)cc1	-9.75
CCCOc1cccc(NC(=O)c2c(-c3ccccc3)noc2C)c1	-8.81
CCc1ccc(-n2c(SCC(=O)Nc3cccc(S(=O)(=O)NC4=NCCCCC4)c3)nc3ccccc3c2=O)cc1	25.8
CC(C)OCCCNC(=O)Cn1ncc2c(=O)oc3ccccc3c21	-5.08
O=C1CC(c2cc(F)ccc2F)c2cc3c(cc2N1)CCC3 (stereo not shown)	-2.24
CCOC(=O)N1CCN(CC(=O)Nc2cc(C)nn2-c2nc3ccccc3s2)CC1	-23.3
Cc1ccc(-c2nnc(N3CCCCC3)c3ccccc23)cc1S(=O)(=O)N(C)C	-27
Cc1cc(C)c(C)c(S(=O)(=O)N2CCC(C(=O)Nc3ccccc3N3CCOCC3)CC2)c1C	-8.54
O=c1nc2ccccc2c(NS(=O)(=O)c2ccccc2)n1-c1ccccc1	2.7

Compound	hERG current change (%, negative = inhibition) at 10uM [%]
COc1ccc(OC(=O)C(C)N2C(=O)c3ccccc3C2=O)cc1 (stereo not shown)	2.07
Cc1ccc(S(=O)(=O)N2c3ccccc3OCC2C(C)(C)C)cc1 (stereo not shown)	4.08
CC(C)(Oc1ccc(Cl)cc1)C(=O)N(Cc1ccccc1)c1ccccn1	-7.15
COc1ccc(-n2nc(C(=O)NCC(=O)NCCCN3CCOCC3)c3ccccc3c2=O)cc1	3.4
Cc1ccccc1C1c2[nH]c3ccccc3c2C[C@H]2C(=O)N(c3ccccc3C(=O)NCCCN3CCOCC3)C(=O)N12 (stereo partly shown)	-21.3
CCOC(=O)c1cnc2c(cnn2C)c1Cl	8.92
O=C(NCCNc1ccc([N+](=O)[O-])cc1Cl)c1ccccc1F	-13.5
CC(C)(C)C1CCc2onc(C(=O)NCc3ccc(F)cc3)c2C1 (stereo not shown)	-15.8
CC(=O)Nc1cccc2c1OCCO2	6.45
Cc1ccc(-c2cc(C(=O)NCCCn3ccnc3)c3ccccc3n2)s1	-70.9
CCOc1ccc(N2C(=O)CC(SCc3nc4ccccc4[nH]3)C2=O)cc1 (stereo not shown)	-31
OC(c1nc2ccc(F)cc2[nH]1)C(O)c1nc2ccc(F)cc2[nH]1 (stereo not shown)	8.96
O=C(Nc1nnc(-c2ccc(F)cc2)s1)c1c(F)cccc1Cl	12.1
COc1ccc(/C=C2/C(=O)NC(=O)N(c3ccccc3)C2=O)cc1CN1C(=O)c2ccccc2C1=O	8.65
CCCCCOP(=O)(c1ccccc1)c1ccccc1	-29.8
Cc1ccccc1S(=O)(=O)Cc1ccc(C(=O)O)o1	10.8
CCOC(=O)c1cccc(-[n+]2c(-c3ccccc3)cc(-c3ccccc3)cc2-c2ccccc2)c1.[O-][Cl+3]([O-])([O-])[O-]	-73.5
NC(=O)c1ccsc1NC(=O)CS(=O)(=O)c1ccc(Cl)cc1	-75.7
O=C(CSc1nc(O)c(C2CCCCC2)c(=O)[nH]1)N1CCOCC1	15.7
COC(=O)c1cc(NC(=O)c2c(Cl)nc3sccn23)cc(C(=O)OC)c1	23.4
O=C(NCCCN1CCOCC1)c1ccc2c(c1)N(Cc1c(F)cccc1Cl)C(=O)CS2	-21.4
O=C(NCC(=O)N(CC1CCCO1)C1(C(=O)NC2CCCCC2)CCCCC1)c1ccccc1 (stereo not shown)	1.48

Compound	hERG current change (%, negative = inhibition) at 10uM [%]
Cc1cccc2c1cnn2C(=O)CCC(=O)N1CC(C)CC(C)C1 (stereo not shown)	-37.1
O=C(O)CSc1ncnc2scc(-c3ccc(Br)cc3)c12	-2.23
Cc1cc(=O)n(Cc2ccccc2)c2ccccc12	4.79
CCOc1ccccc1C(=O)NCc1ccc2c(c1)OCO2	-12.1
Cc1ccc(CSCc2ccc(C(=O)NCCC(C)C)o2)cc1	-15.9
O=C(NC1c2ccccc2-c2ccccc21)N1CCOCC1	-12.9
C=CCN1C(=O)C(CC(=O)Nc2ccccc2)SC1=Nc1c(C)n(C)n(-c2ccccc2)c1=O (stereo not shown)	-0.0305
COCCCN1C(=O)/C(=C/c2ccc(CNS(=O)(=O)c3ccccc3)o2)C(C(=O)OC)=C1C	3.9
COc1cc([N+](=O)[O-])ccc1NC(=O)COC(=O)C=C(C)C	-0.511
CCC(C)(C)NC(=O)C(c1cccn1C)N(C(=O)Cn1nnc2ccccc21)c1ccc(NC(C)=O)cc1 (stereo not shown)	-5.41
COC(=O)c1cnn(-c2ccc(F)cc2F)c1/C=N/NC(=S)NC(C)(C)C	1.92
O=C(COc1ccc(Cl)cc1Cl)NCCCNC(=O)c1cnccn1	-56.5
O=C(CN1C(=O)CCS(=O)(=O)c2ccccc21)Nc1ccc(F)cc1	11.9
CCC(CC)NC(=O)Cc1ccc(F)cc1	13.9
CCOC(=O)c1c(CN(CC)CC)oc2cc(Br)c(O)cc12	-79.8
CN(Cc1cn(C)nc1-c1ccc(Oc2ccccc2)cc1)C1CCOC1 (stereo not shown)	-10.8
O=C(Nc1ccc(Oc2cccnc2)cc1)C1CCN(Cc2ccccc2)CC1	-75.1
CCc1nnc(NC(=O)CCC(=O)N2CCN(S(=O)(=O)c3ccc(OC)cc3)CC2)s1	20.6
O=C(Nc1ccccc1)C(Cl)C(=O)c1ccccc1 (stereo not shown)	-9.25
